# Screen size: about 50,000 compounds; about 800 (1.6%) showed an effect of 50% or more. Some of the results follow.
# Target: Bcl-2-like protein 10 (Homo sapiens) (UniProt Q9HD36)
# Test: Phenotype converters, Bcl-B/TR3 peptide binding displacement, primary biochemical FP (AID 1240);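 also: 0% = Bcl-B with tracer peptide and DMSO and 100% = tracer peptide lacking Bcl-B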
# Details: GST-Bcl-B / FITC-TR3 peptide fluorescence polarization; stronger effect = higher value; compound at 3.75 mg/L
# UniProt Q9HD36, sequence (Q9HD36 whole entry, looked up): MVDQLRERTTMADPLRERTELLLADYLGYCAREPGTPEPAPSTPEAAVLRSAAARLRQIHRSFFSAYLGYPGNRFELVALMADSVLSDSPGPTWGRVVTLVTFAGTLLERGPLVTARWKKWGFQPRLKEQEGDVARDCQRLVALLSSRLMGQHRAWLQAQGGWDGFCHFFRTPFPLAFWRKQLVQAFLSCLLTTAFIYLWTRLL
row,Compound,displacement
1,Cc1ccc(C(=O)CSc2nc3ccccc3c(=O)[nH]2)cc1C,7.8%
2,COc1ccccc1OCCCOc1ccc(C)c(C)c1,12.7%
3,CCC(=NCc1ccco1)c1c(C(F)(F)F)[nH]n(-c2nc3ccccc3s2)c1=O,-5.1%
4,Cc1cc(C)nc(SCC(=O)Oc2ccc3c(C)cc(=O)oc3c2)n1,6.8%
5,COc1ccc(CCNC(=O)c2cccc([N+](=O)[O-])c2C)cc1OC,5.7%
6,Cc1cc(OCC(=O)ONC(=O)c2ccc(Cl)cc2)ccc1Br,7.4%
7,CCOc1cccc(/C=N/NC(=O)CSc2nc3ccccc3n2Cc2ccccc2)c1O,-5.3%
8,O=C(O)c1ccc(CSc2nc3ccc(N4C(=O)C5CCCCC5C4=O)cc3s2)cc1 (stereo not given),1.3%
9,CCOc1ccccc1N(CC(=O)Nc1ccccc1)S(=O)(=O)c1ccccc1,-7.7%
10,Cc1ccc(C23CC4CC(CC(O)(C4)C2)C3)cc1N=Cc1cc(Br)ccc1O,-3.8%
11,O=C(Cc1ccccc1)N1N=C(c2ccc([N+](=O)[O-])cc2)CC1(O)C(F)(F)F (stereo not given),3.5%
12,O=C(Nc1cccc2c(NC(=O)c3ccco3)cccc12)c1ccco1,8.3%
13,Cc1ccc(OCC(=O)Nc2cc([N+](=O)[O-])ccc2C)c(C)c1,5.9%
14,O=C(Nc1ccc(Cl)cc1)c1cccc(S(=O)(=O)N2CCCCC2)c1,-7.6%
15,O=C(CSc1nnnn1-c1ccccc1)Nc1nncs1,3.2%
16,CCN(CC)C(=O)c1sc(NC(=O)c2cc(Cl)ccc2Cl)c(C#N)c1C,1.9%
17,CC(C)Oc1ccc(NC(=O)CSc2nnnn2-c2ccccc2)cc1,-8%
18,CC(=O)Oc1c(Cl)c(Cl)c(OC(C)=O)c2ccccc12,7.5%
19,CCc1c(O)nc(SCC(=O)Nc2cccc3ccccc23)[nH]c1=O,0.7%
20,Cc1ccc2oc(-c3ccc(Cl)c(NC(=O)c4ccc([N+](=O)[O-])o4)c3)nc2c1,12.2%
21,CCOC(=O)C(=CNc1ccc(Br)cc1)C(=O)OCC,3.9%
22,CN(C)c1ccc(/C=C(/C#N)C(=O)Nc2cccc(Br)c2)cc1,53.8%

row,Compound,displacement
1,Cc1c(C(=O)Nc2ccc3oc(-c4cccnc4)nc3c2)oc2ccccc12,35%
2,O=C(O)CN1C(=O)/C(=C\c2cccc(Oc3ccccc3)c2)SC1=S,-1%
3,Cc1ccc(OCc2nnc(NC(=O)Nc3cccc(Cl)c3)s2)cc1C,14.2%
4,Cc1ccc(S(=O)(=O)N=C2C=C(C(C)C)C(=O)C(C(C)C)=C2)cc1,-7.8%
5,COc1ccc(/C=C/C(=O)NC(=S)Nc2ccccc2)cc1OC,-6.8%
6,COc1ccc(CC(=O)Nc2ccccc2C(=O)NCC(C)C)cc1,10.8%
7,CCSCCOC(=O)C1=C(C)NC(=O)NC1c1cccc(Br)c1 (stereo not given),1.3%
8,C=C(C)CNC(=S)NNC(=O)CCn1c2ccccc2c2ccccc21,-11.3%
9,Cc1cc(C)c(S(=O)(=O)Nc2cc(C(F)(F)F)ccc2Cl)c(C)c1,-2.8%
10,Cc1ccc(C(=O)Nc2cccc3nsnc23)cc1,-1%
11,COc1ccc(OCC(=O)Nc2ccc(OC)cc2OC)cc1,-5%
12,O=C1OC(c2cccs2)=N/C1=C\c1cccc(Cl)c1Cl,29.5%
13,CNc1nc(NC)nc(-n2c(C(F)(F)F)nc3ccccc32)n1,11.9%
14,CC(C)NC(=O)c1ccc(CN2CCN(c3ccccc3)CC2)cc1,-3.3%
15,Cc1ccc(NC(=O)C2CC=CCC2C(=O)OCC(Cl)=C(Cl)Cl)cc1 (stereo not given),2.2%
16,COc1cc([N+](=O)[O-])cc2c1N=C(c1ccc(Br)cc1)NO2,4.3%
17,CC(=O)C1=C(O)CC(C)(C)CC1=Nc1ccccc1O,-18.6%
18,COCCOC(=O)c1c(C)oc2ccc(OCC(=O)c3ccccc3)cc12,6.1%
19,Cc1ccc(S(=O)(=O)N2CCCC2)cc1,1.6%
20,COc1ccc(-c2nnc(NC(=O)c3ccc(F)cc3)s2)cc1OC,10%
21,O=C1CCC([N+](=O)[O-])C(c2ccc3c(c2)OCO3)N1 (stereo not given),1.1%
22,N#Cc1c(/N=C/c2cc([N+](=O)[O-])c(N3CCOCC3)cc2N2CCOCC2)sc2c1CCCC2,14.5%

row,Compound,displacement
1,CCOC(=O)Cc1csc(NC(=O)COc2ccc(-c3ccccc3)cc2)n1,15.5%
2,Fc1cccc(Cl)c1Cc1noc(-c2ccc(Br)cc2)n1,13.6%
3,O=c1c(-c2ccc(Cl)cc2)coc2c(CN3CCCCCC3)c(O)ccc12,-12%
4,COc1cccc(/C=C2\SC(=S)N(NC(=O)c3cccc([N+](=O)[O-])c3)C2=O)c1,-14.5%
5,COC(=O)c1ccc(OCC(O)Cn2c3ccccc3c3ccccc32)cc1 (stereo not given),-29.4%
6,COc1ccccc1CN1CCN(S(=O)(=O)c2ccccc2)CC1,-4.5%
7,COc1cc(/C=C/C(=O)c2c(C)cc(C)[nH]c2=O)cc(OC)c1OC,8.5%
8,O=C(CSc1nnc(-c2cccc(F)c2)n1-c1ccccc1)Nc1ccccc1,-13.8%
9,Cc1ccc(NC(=O)c2ccc([N+](=O)[O-])cc2Cl)c(Br)c1,-3%
10,CN(C)C(=O)NCCSCc1ccccc1Cl,2.2%
11,COc1ccc(Nc2cc(C)nc(-c3ccccc3O)n2)cc1,-10.7%
12,Cc1ccnc(NS(=O)(=O)c2ccc(NC(=O)c3cccc(I)c3)cc2)n1,34.2%
13,COc1ccc(C(=O)NNC(=O)c2cccc(Cl)c2)c(OC)c1,-2%
14,CCCC(=O)Nc1ccc(NC(=O)c2ccco2)cc1,-3.2%
15,NNc1nc(-c2ccccc2)cs1,6.4%
16,CC(=O)c1ccc(NC(=O)/C(=C\c2ccco2)NC(=O)c2ccco2)cc1,-32.9%
17,N/C(Cc1ccc([N+](=O)[O-])cc1)=N\OC(=O)Cc1ccc(Cl)cc1,-8.1%
18,Cc1ccc(C(=O)Nc2cccc(NC(=O)c3ccc(C)cc3)n2)cc1,3.9%
19,Cc1cc2nc(-c3ccc(NC(=O)c4cccc([N+](=O)[O-])c4C)cc3)oc2cc1C,-2.6%
20,C(=NC1=NN(c2ccccc2)CC1)N1CCCCC1,2.8%
21,CCc1ccc(-n2c(C)cc(/C=C(/C#N)C(=O)N3CCOCC3)c2C)cc1,-0.4%
22,COc1ccc(C2C(C(C)=O)=C(Nc3ccccc3)CC(C)(O)C2C(C)=O)cc1 (stereo not given),1.4%

row,Compound,displacement
1,O=[N+]([O-])c1ccc(C=NC23CN4CN(CN(C4)C2)C3)s1,-8%
2,Cc1ccc(C(=O)Nc2ccccc2)cc1[N+](=O)[O-],4.6%
3,O=C1NC(=S)N/C1=C/c1ccc(O)c(Br)c1,23.3%
4,CC(C)c1ccc(N=C2C(=O)Nc3ccc(Br)cc32)cc1,5.1%
5,Cc1cccc(NC(=O)c2ccc(-c3ccc(C)c(Cl)c3)o2)c1,69.8%
6,Cc1ccsc1/C=C1\SC(=O)NC1=O,6.2%
7,C#Cc1cccc(N2C(=O)c3ccc(Oc4ccc([N+](=O)[O-])cc4)cc3C2=O)c1,2.7%
8,COc1ccc(OC)c(C2/C(=C(\O)c3ccc(Cl)cc3)C(=O)C(=O)N2CCCCCC(=O)O)c1 (stereo not given),2.1%
9,CCOC(=O)c1cncc(NC(=O)c2ccccc2)c1,-16.4%
10,CCOc1cc(C=O)ccc1OC(C)C,-9.1%
11,CC(C)OC(=O)c1cc(O)c(O)c(O)c1,-1.3%
12,CC(C)OC(=O)c1c(NC(=O)c2cccc(OC(C)C)c2)sc2c1CCC2,-9.7%
13,O=C(O/N=C(\c1ccncc1)c1ccc([N+](=O)[O-])cc1)c1ccc(Oc2ccccc2)cc1,3.3%
14,COc1ccc(/C(C)=N/NC(=O)c2cc(C)[nH]n2)cc1[N+](=O)[O-],-12.3%
15,CCCCOC(=O)c1ccc2c(c1)C1C=CCC1C(c1ccc([N+](=O)[O-])cc1)N2 (stereo not given),6.6%
16,O=C(N/N=C/c1ccc2c(c1)OCO2)c1ccccn1,13.2%
17,COc1ccc(C2C(C(=O)OC3CCCCC3)=C(C)NC3=C2C(=O)CCC3)c(OC)c1 (stereo not given),-10.6%
18,N#CC(C(=O)Nc1ccccn1)=C1CCCCCC1,-3%
19,O=C1C2C(C(=O)N1c1nccs1)C1C=CC2C12CC2 (stereo not given),-0.7%
20,CCN(CC)CCCNS(=O)(=O)c1ccc(OC)cc1,-5.5%
21,COc1ccc(C)cc1NCc1ccncc1,1.9%
22,O=C1CC(N2CCC(Cc3ccccc3)CC2)C(=O)N1CCc1ccccc1 (stereo not given),12.6%

row,Compound,displacement
1,Nc1nc(Oc2ccccc2)c(Br)c(=O)[nH]1,3.4%
2,CC(=O)OCCCNC(=O)/C(=C\c1ccc2c(c1)OCO2)NC(=O)c1ccco1,-5.3%
3,Cc1ccc(-c2nc3cc(NC(=O)C(C)C)ccc3o2)cc1,8.2%
4,Cc1ccc(/C(N)=N/OC(=O)c2cccc(F)c2)cc1,14.9%
5,O=S(=O)(/C=C/c1ccccc1)N1CCN(c2ccccc2)CC1,-4.5%
6,Cc1ccc(N2C(=O)CC(NC3CCCCCC3)C2=O)cc1 (stereo not given),20%
7,COc1ccc(-c2ccc(/C=C3/C(=O)NC(=O)N(c4ccccc4)C3=O)o2)c([N+](=O)[O-])c1,78.3%
8,CCOC(=O)c1ccc(NC(=O)COc2ccc(Br)cc2)cc1,4.4%
9,C/C(=C\C(=O)c1ccc(Br)cc1)Nc1ccccc1C,0.8%
10,CN1C(=O)/C(=C\c2ccccc2OCCOc2ccc([N+](=O)[O-])cc2)SC1=S,133%
11,COc1ccc(NC(=O)CN(CCc2ccccc2)S(=O)(=O)c2ccc(OC)cc2)cc1,8.7%
12,CCc1cc(C)cc(OCCOc2ccc(C=C3C(=O)NC(=O)NC3=O)cc2)c1,-11.3%
13,Cc1[nH]n(-c2ccccc2)c(=O)c1N=Nc1nccs1,-10.2%
14,CCOC(=O)CNC(=O)CCCOc1ccc(Cl)cc1Cl,-3.2%
15,CC(C)N(Cc1ccccc1)C(=O)CCCOc1ccc(Cl)cc1Cl,15.9%
16,Cc1ccccc1OCC(=O)Nc1ccc2c3c(cccc13)CC2,107%
17,CS(=O)(=O)N(Cc1ccccc1)c1ccccc1C(=O)Nc1ccc(Cl)c(C(F)(F)F)c1,6.3%
18,O=C(Nc1c(F)c(F)c(F)c(F)c1F)C1CCCO1 (stereo not given),2.5%
19,Cc1cc(NC(=O)Cc2cccs2)ccc1NC(=O)c1cccs1,0.5%
20,COc1cc(/C=C2/C(=O)NN(c3ccccc3)C2=O)ccc1OC(C)=O,-3.6%
21,Cc1onc(-c2ccccc2Cl)c1C(=O)Nc1ccc2ccccc2c1,3.1%
22,Cc1ccc(N(CC(=O)N/N=C/c2ccccc2O)S(=O)(=O)c2ccccc2)cc1,-3.1%
